# Measured values reported in the supplement of paper PMC11417369.
# The other results are listed elsewhere or left out.
# Test system: PfSIP2 AP2 domain 1 (GST-tagged)
# Experiment: gcPBM binding intensity (ln(normalized median fluorescence intensity)); higher = stronger DNA binding
# Outline: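 Binding of GST-tagged P. falciparum DNA-binding domains, expressed in E. coli and used at about 25 μg on average, was carried out for 1 h in 1× PBS containing 1% milk, 0.2 mg/ml BSA, 0.5% salmon testes DNA and 0.03% Triton X-100. The target was an Agilent 4 × 180k array of primer-extended double-stranded 36-bp intergenic genomic probes plus negative controls, read with Alexa488 anti-GST antibody at 488 nm. Binding intensity is the highest Masliner-normalised natural-log median intensity across replicate spots of either probe orientation.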
row,Sequence,gcPBM binding intensity (ln)
1,TCATGTTTTACAAAAACACACAAATGAATATAAACC [CACACA_site1161],7.3
2,TGTACATAAATCTAATTATTATATGTGTATATATAT [CACACA_negctrl_site1582],7.81
3,AGTACAGACATAGACACACACACACCCATAAAAAAA [CACACA_site1515],7.24
4,TTAAGATAGCAAATATGTACACATTTGTAAAATAAA [XGTACX_site4837],7.25
5,TAAAAATTCAATTGCACACGCACATATTTTAATAAG [CACACA_site2014],7.12
6,AATATAATAATAAAAACACACACGTTGATTGTATTA [CACACA_site2381],6.86
7,CGTATGCAAGGAACCACACACACACCCATAAATGTA [CACACA_site749],7.11
8,AAAAAATAGACATATACACACATATGTATTTATAAT [CACACA_site5225],6.97
9,TTAAAAATAAAAAATACACACTCTAGTCCATGTAAC [CACACA_site3640],6.78
10,ATTTCATATAGTGTAGTGCAATTTTAAGCATCAAGG,8.3
11,ATGTCATTATATACATGTACGCATATCTGTTTATCC [XGTACX_site3947],7.09
12,CCTATAATAAATAATACACACATATTGTAAATATAT [CACACA_site7496],6.94
13,TTTTTTTTTATAAGGTGTACGTAAAATGTGTAGGTC [XGTACX_site3585],8.36
14,TAAGTGCTTTTCAACTGTACCTTCCATTTATTTATT [XGTACX_site8589],7.06
15,TCTTGACTAAATATATGTACATATATTTTAATAATA [XGTACX_site701],7.09
16,ACTACATAATATTTACGTACCTAAAAAATTCTTATA [XGTACX_site509],7.19
17,TTCTTATTTTATATTTCACACATTTTTACTATACTT [CACACA_site5817],7.29
18,GTATTCAAAAGTGAAACATGCAATAATATATATATA [TGCATGCA_site617],8.83
19,AAAAAAAAAAAAAATACACACGTGAATGTATTGTTT [CACACA_site4856],7.17
20,AAGGAGCCTATGAACACACACATGTACCTATATTAA [CACACA_site7838],6.87
21,AGAATGAAATAATATACACACAAAGGAAAAATGTAA [CACACA_site3911],6.76
22,ATACGTATTTATTTCACACACGTTAAAAAAATAAAA [CACACA_site6027],7.08

row,Sequence,gcPBM binding intensity (ln)
1,ATAATTTTTATTTGTACACACATACAGATATATTAT [CACACA_site4701],7.08
2,GATATGTACTAATACACACACATATATATATATATA [CACACA_site1022],9.35
3,GATATAGATATTAATTGTACATATTATTTATTGTTA [XGTACX_site846],7.02
4,TTCTAAAAAGGGTGTACACAAACGAATGGAAAATAA [CACACA_site5483],8.11
5,CACACTAAAAGACACACACACACACGCATATAAATA [CACACA_site7874],7.43
6,AAATATATATATATATGTACACACACACATATAAAT [XGTACX_site847],7.43
7,ATTAAACATACATATACACACACACCCACCCACCCA [CACACA_site8057],7.76
8,TAGTGTAAAAAATACGCATGTGTACAAATATAATAA [TGCATGCA_site498],7.15
9,TAAAGGTGTAAAACTGCATGCTGGAGAAAAGTAAAA [TGCATGCA_site591],6.96
10,AATAATACGTTAAATGTTCTTACAAGTTGGTTTCAT [CACACA_negctrl_site1029],6.87
11,ATTATATAATATAATGCATGTGTTAATGAAAAATCT [TGCATGCA_site426],6.9
12,AAAAAAAAATTTGTATCACACACGTATTATAAAAAA [CACACA_site6],6.91
13,AAAAAAAAAAAAAAGTGTACCTTATTATACTTTAAT [XGTACX_site8439],7.19
14,TTATGATAACTTTGCACACACTTAGGAAAAGTTATG [CACACA_site6836],7.06
15,ATCTTTATTTTTAGCGCACACATAAAATAATAATAA [CACACA_site3458],7.75
16,CAAAGCATTTTATCTACACACATATATAAATAAATA [CACACA_site7500],6.88
17,TATTTTAACTTTTTTTCCTTTATTCATTTTTTTTTC [CACACA_negctrl_site971],6.75
18,TGATGCAAGATATATACACACATATAAATATAAATA [CACACA_site7429],6.98
19,TTTTTTTTTTTATGTGCACACAAAAGATGCTTATAT [CACACA_site2347],8.73
20,TATATATATATAATATGTACATATATATATTCTTAA [XGTACX_site6154],8.78
21,ATAATTCATGTTTAGTGTACAAAAAATTAAAGCAAC [XGTACX_site8891],7.49
22,AAATAATTTATATGTAGTACATGTTGTAGATAATTT [XGTACX_site1031],7.03
